The record followed here is PMC4336329 (PLoS ONE, 2015).

Among all 310,000 compounds or so, about 2,200 (0.71%) showed an effect of 50% or more. The effect is printed as a negative number. The list shows a part of the results.

In the assay the target is human ether-à-go-go-related gene (hERG) potassium channel (human, UniProt Q12809). Description: primary screen, population patch clamp on CHO cells stably expressing hERG.
Chain of human ether-à-go-go-related gene (hERG) potassium channel (Q12809 whole entry, looked up): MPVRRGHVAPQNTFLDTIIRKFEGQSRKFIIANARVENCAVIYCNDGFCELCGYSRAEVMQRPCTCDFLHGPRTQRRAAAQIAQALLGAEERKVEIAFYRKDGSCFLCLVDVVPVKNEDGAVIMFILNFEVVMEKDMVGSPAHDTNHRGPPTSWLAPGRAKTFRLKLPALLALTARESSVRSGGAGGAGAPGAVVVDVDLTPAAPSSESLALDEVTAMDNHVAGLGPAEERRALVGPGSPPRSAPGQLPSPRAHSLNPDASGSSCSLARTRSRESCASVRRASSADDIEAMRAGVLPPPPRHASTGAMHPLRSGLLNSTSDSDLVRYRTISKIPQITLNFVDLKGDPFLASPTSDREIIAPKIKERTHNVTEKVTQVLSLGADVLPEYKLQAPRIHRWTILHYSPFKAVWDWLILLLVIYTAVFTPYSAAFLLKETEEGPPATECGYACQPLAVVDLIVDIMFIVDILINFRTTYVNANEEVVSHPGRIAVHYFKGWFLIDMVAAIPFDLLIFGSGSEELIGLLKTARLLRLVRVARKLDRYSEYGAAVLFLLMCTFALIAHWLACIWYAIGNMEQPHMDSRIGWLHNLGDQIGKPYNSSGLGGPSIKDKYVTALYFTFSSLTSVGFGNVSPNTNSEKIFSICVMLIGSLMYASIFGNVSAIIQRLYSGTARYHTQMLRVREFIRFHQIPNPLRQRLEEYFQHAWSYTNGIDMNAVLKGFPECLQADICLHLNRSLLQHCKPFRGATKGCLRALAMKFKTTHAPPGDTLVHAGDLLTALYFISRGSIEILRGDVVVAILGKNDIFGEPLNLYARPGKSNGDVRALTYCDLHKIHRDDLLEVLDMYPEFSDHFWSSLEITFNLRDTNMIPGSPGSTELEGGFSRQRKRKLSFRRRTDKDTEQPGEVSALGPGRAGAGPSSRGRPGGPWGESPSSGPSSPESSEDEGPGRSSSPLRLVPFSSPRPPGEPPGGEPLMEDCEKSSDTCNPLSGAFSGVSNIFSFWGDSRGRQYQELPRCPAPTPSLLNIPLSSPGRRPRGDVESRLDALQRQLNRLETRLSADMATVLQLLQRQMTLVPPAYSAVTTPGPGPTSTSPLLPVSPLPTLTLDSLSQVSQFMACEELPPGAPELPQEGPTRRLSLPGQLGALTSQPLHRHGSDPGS
For the compound `O=C(O)CC1(CC(=O)Nc2ccc(Oc3cccc(C(F)(F)F)c3)nc2)CCCC1`, the “hERG current change (%, negative = inhibition) at 1uM” value is reported as 10.4%. Turning to `O=c1[nH]c2ccc(S(=O)(=O)N3CCN(c4ccccc4F)CC3)cc2s1`, the “hERG current change (%, negative = inhibition) at 1uM” value is -0.845%.

For the compound `O=C(CS(=O)(=O)Cc1ccccc1)NCc1ccc2c(c1)OCO2`, the “hERG current change (%, negative = inhibition) at 1uM” value is on record as -5.16%. With `CCC(=O)N1CCN=C1SCc1ccccc1Cl`, the “hERG current change (%, negative = inhibition) at 1uM” value was determined as 14.3%. `COc1ccccc1-n1cnnc1SCC(=O)NC1CCS(=O)(=O)C1` (centres unmarked): the “hERG current change (%, negative = inhibition) at 1uM” value came out at 16.6%. `Cc1cc(OCc2nnc(SCC(=O)O)n2-c2ccccc2)ccc1Cl`: the “hERG current change (%, negative = inhibition) at 1uM” value is listed as 11.7%. For the compound `O=C(Cc1ccc(F)cc1)NC1CCCC1`, the “hERG current change (%, negative = inhibition) at 1uM” value was found to be 0.718%. For `O=C(Nc1ccccc1F)n1ncc2cc(Cl)ccc21` the value was 13.9%; for `COc1ccc(Cn2c(C)nnc2-c2cnn(C)c2N)cc1`, 9.29%. In the case of `CC1CCN(S(=O)(=O)c2ccc(Cl)cc2)CC1` it was 5.86%; in that of `CCOC(=O)Cc1cc(=O)c2c(=O)n(-c3ccccc3)[nH]c2[nH]1`, 6.6%; in that of `C=CCn1c(N)cc(=O)nc1SCC(=O)N1CCN(c2ccc(F)cc2)CC1`, 13.1%. In the case of `Cc1ccc(/C=N/NC(=O)c2nnn(-c3nonc3N)c2CSc2ccccc2)cc1` it was 11.4%; in that of `Cc1ccc(NC(=O)C(C)OC(=O)c2ccc(NC(=O)CC#N)cc2)cc1S(=O)(=O)N1CCOCC1` (centres unmarked), 4.57%. For the compound `Cc1ccc(CSc2ncnc3c2cnn3-c2ccccc2)cc1`, the “hERG current change (%, negative = inhibition) at 1uM” value is on record as 12.1%.

Regarding `CN=C(C)/C(C(=O)OC)=C(/O)c1ccc(Cl)cc1Cl`, the “hERG current change (%, negative = inhibition) at 1uM” value stood at 11.3%. In the case of `Cc1cc(Nc2cc(F)ccc2C)n2ncnc2n1` it was 8.73%. For the compound `COC(=O)C1=C(N)Oc2cc(C)n(Cc3cccnc3)c(=O)c2C1c1cccc(OC)c1OC` (centres unmarked), the “hERG current change (%, negative = inhibition) at 1uM” value is on record as 8.96%. As to `CCOC(=O)C1CCN(S(=O)(=O)c2cccc(-c3cn4cc(C)ccc4n3)c2)CC1`, the “hERG current change (%, negative = inhibition) at 1uM” value is recorded as 2.14%. For the compound `Cc1cccc(NC(=O)CSc2cc(C)c(C#N)c3nc4ccccc4n23)c1`, the “hERG current change (%, negative = inhibition) at 1uM” value came to 13.4%. For `O=C1N=c2ccc(Br)cc2=C1c1sc(=S)n(NS(=O)(=O)c2ccccc2)c1O` the value was 6.08%; for `COC(=O)c1ccc(CSc2nnc3c(n2)[nH]c2ccccc23)cc1`, -2.75%; for `COc1ccccc1NC(=S)N(CCN(C)C)C(C)c1ccncc1` (centres unmarked), -0.164%.

Regarding `CSCCC(NC(=O)C12CC3CC(CC(C3)C1)C2)C(=O)OCC(=O)c1ccccc1` (centres unmarked), the “hERG current change (%, negative = inhibition) at 1uM” value is reported as 11.9%. With `O=C(NC1CCCC1)C(c1ccccn1)N(C(=O)c1csnn1)c1ccc(F)cc1` (centres unmarked), the “hERG current change (%, negative = inhibition) at 1uM” value is listed as 12.9%.

In the case of `CC(=O)c1cccc(N(CC(=O)Nc2cccnc2)S(C)(=O)=O)c1`, the “hERG current change (%, negative = inhibition) at 1uM” value amounted to 0.334%.

Take `O=C(NCCC1=CCCCC1)C1CCC(=O)N(Cc2cccc(C(F)(F)F)c2)C1` (centres unmarked): the “hERG current change (%, negative = inhibition) at 1uM” value was 3.98%. Turning to `COCCCn1c(=O)c2ccccc2n(CC(=O)NCCC2=CCCCC2)c1=O`, the “hERG current change (%, negative = inhibition) at 1uM” value amounted to 2.07%. `Cc1ccc(OCCC(=O)OCC(=O)Nc2ccc(Cl)cn2)cc1`: the “hERG current change (%, negative = inhibition) at 1uM” value is recorded as -8.19%. In the case of `Cn1nc(C(=O)Nc2ccccc2Cl)cc1C(=O)Nc1ccccc1Cl` it was 11.7%; in that of `CC(C)Oc1ccc2ccccc2c1C=O`, 7.42%; in that of `O=C(O)C1(c2ccccc2)CCN(S(=O)(=O)c2ccc(Cl)s2)CC1`, 9.1%. As for `COCCn1c(SCc2nc3cc(OC)c(OC)cc3c(=O)[nH]2)nnc1-c1ccncc1`, the “hERG current change (%, negative = inhibition) at 1uM” value is 10.6%. For `COC(=O)C1=C(c2cccc(OC)c2OC)C[C@@H]2CC[C@H]1N2C(=O)N1CCC(C)CC1` the value was 3.51%; for `CCOc1ccc(NC(=O)CCCOc2cc(=O)n(C)c3ccccc23)cc1`, 5.22%; for `COc1ccc(N=Cc2nc(-c3ccccc3)oc2OC(C)=O)cc1`, 13.7%. On to `CC(C)C[C@H](NC(=O)N1CC(=O)Nc2ccccc21)C(=O)N[C@@H](C(=O)O)c1ccccc1`, for which the “hERG current change (%, negative = inhibition) at 1uM” value was found to be 9.71%. For `CCOc1ccccc1NC(=O)CCC(=O)Nc1ccccc1OCC`, the “hERG current change (%, negative = inhibition) at 1uM” value is listed as 9.15%.

In the case of `CN1CCN(CC(=O)N2CCn3c4c(c5cc(C6CCCCC6)ccc53)CCCC42)CC1` (centres unmarked), the “hERG current change (%, negative = inhibition) at 1uM” value came to 2.27%. For `O=C(c1ccc(OC2CCN(Cc3ccc(F)cc3)CC2)cc1)N1CCCC1`, the “hERG current change (%, negative = inhibition) at 1uM” value amounted to 7.68%. For `O=C(O)c1nccnc1C(=O)N1CCN(c2ccccc2)CC1`, the “hERG current change (%, negative = inhibition) at 1uM” value turned out to be 9.08%.

With `CCN1CCN(Cc2cc(Br)cc(OC)c2O)CC1`, the “hERG current change (%, negative = inhibition) at 1uM” value came out at 2.15%. Regarding `COc1cccc(CNC(=O)c2cc3c(C)nc4ccccc4c3o2)c1`, the “hERG current change (%, negative = inhibition) at 1uM” value came out at 8%.

`c1ccc2c(C[C@@H]3CNCCN3CC3CCCCC3)cccc2c1`: the “hERG current change (%, negative = inhibition) at 1uM” value stood at 15.6%. Turning to `CCOC(=O)N1CCN(Cc2cn[nH]c2-c2cc3ccccc3o2)CC1`, the “hERG current change (%, negative = inhibition) at 1uM” value is on record as -0.862%. For the compound `CC1CCCC(NC(=O)CSc2ncccn2)C1C` (centres unmarked), the “hERG current change (%, negative = inhibition) at 1uM” value is 2.48%.

Consider `Cc1ccccc1-c1nnnn1C1CCS(=O)(=O)C1` (centres unmarked), for which the “hERG current change (%, negative = inhibition) at 1uM” value is given as 2.03%.

For the compound `CCc1c(C)nc(SC/C=C/c2ccccc2)[nH]c1=O`, the “hERG current change (%, negative = inhibition) at 1uM” value is 1.87%.

On to `CC1c2cc3c(cc2CCN1C(=O)c1cccc(F)c1)OCCCO3` (centres unmarked), for which the “hERG current change (%, negative = inhibition) at 1uM” value turned out to be 21.6%. As to `CC1CCC2(CC1)NC(=O)N(CC(=O)c1ccc(Cl)s1)C2=O` (centres unmarked), the “hERG current change (%, negative = inhibition) at 1uM” value is reported as 4.95%. For `O=C1CN(C(=O)c2ccccc2F)C(c2ccccc2)c2cc(F)ccc2N1` (centres unmarked), the “hERG current change (%, negative = inhibition) at 1uM” value is -2.56%. On to `O=C(Nc1ccc(C(F)(F)F)cc1)c1cccn(Cc2ccc3c(c2)OC(F)(F)O3)c1=O`, for which the “hERG current change (%, negative = inhibition) at 1uM” value was found to be 4.3%.

Consider `O=C(Nc1ccc2c(c1)CCC2)C1COc2ccccc2O1` (centres unmarked), for which the “hERG current change (%, negative = inhibition) at 1uM” value is -2.72%. Consider `CCCc1c(C(=O)N/N=C/C(C)=C/c2ccccc2)nnn1-c1nonc1N`, for which the “hERG current change (%, negative = inhibition) at 1uM” value was 4.41%. In the case of `O=C(CCN1C(=O)/C(=C\c2ccccc2)SC1=S)NNC(=O)c1cccnc1`, the “hERG current change (%, negative = inhibition) at 1uM” value amounted to 12%. Turning to `CCCC1C2CN(C(C)C)CC=C2C(C#N)=C(N)C1(C#N)C#N` (centres unmarked), the “hERG current change (%, negative = inhibition) at 1uM” value is on record as 0.259%.
